Measurements: the supplement of paper PMC4604168 (melanoma cell lines)
Some of the results follow. Many values rest on one well or one pass, so single values are uncertain.

How the values were obtained:
Assay in all cases: cell count relative to DMSO control; melanoma cells; higher = more viable cells
Conditions in all cases: library dose: low library concentration; 72 h
MZ2-MEL = tested on: MZ2-MEL
MeWo = tested on: MeWo
RPMI7951 = tested on: RPMI7951
RVH-421 = tested on: RVH-421
SkMel28 = tested on: SkMel28
SkMel2 = tested on: SkMel2
SkMel30 = tested on: SkMel30
SkMel5 = tested on: SkMel5
UACC257 = tested on: UACC257
UACC62 = tested on: UACC62
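Further: cell number obtained by counting DAPI-stained nuclei in high-throughput microscope images with image analysis software, screen run in 1,536-well plates.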

| Structure (SMILES) | cell count (MZ2-MEL) [%] | cell count (MeWo) [%] | cell count (RPMI7951) [%] | cell count (RVH-421) [%] | cell count (SkMel28) [%] | cell count (SkMel2) [%] | cell count (SkMel30) [%] | cell count (SkMel5) [%] | cell count (UACC257) [%] | cell count (UACC62) [%] |
| --- | --- | --- | --- | --- | --- | --- | --- | --- | --- | --- |
| CC1(C)NC(=O)N(c2ccc([N+](=O)[O-])c(C(F)(F)F)c2)C1=O [nilutamide] + Cn1cncc1[C@@](N)(c1ccc(Cl)cc1)c1ccc2c(c1)c(-c1cccc(Cl)c1)cc(=O)n2C [tipifarnib] (first compound 1 µM, partner dose 0.01 µM) | 101 | 98.7 | 94.8 | 73.6 | 84.3 | 76.5 | 78.9 | 93.3 | 73.8 | 59.9 |
| COc1cc(Nc2ncc(F)c(Nc3ccc4c(n3)NC(=O)C(C)(C)O4)n2)cc(OC)c1OC [Tamatinib] + OCCn1cc(-c2cnc3nnn(Cc4ccc5ncccc5c4)c3n2)cn1 [PF04217903] (first compound 0.4 µM, partner dose 1 µM) | 95 | 89.4 | 87.9 | 95.6 | 84.4 | 94.1 | 101 | 96.8 | 86.7 | 92.4 |
| CC1(C)NC(=O)N(c2ccc([N+](=O)[O-])c(C(F)(F)F)c2)C1=O [nilutamide] + C=CCn1c(=O)c2cnc(Nc3ccc(N4CCN(C)CC4)cc3)nc2n1-c1cccc(C(C)(C)O)n1 [MK1775] (first compound 1 µM, partner dose 0.02 µM) | 97.8 | 101 | 91 | 82.3 | 94.5 | 87.7 | 103 | 100 | 74.7 | 82.5 |
| CC1(C)NC(=O)N(c2ccc([N+](=O)[O-])c(C(F)(F)F)c2)C1=O [nilutamide] + NC(=O)Nc1cc(-c2cccc(F)c2)sc1C(=O)N[C@H]1CCCNC1 [AZD7762] (first compound 1 µM, partner dose 0.02 µM) | 101 | 99.2 | 103 | 123 | 104 | 109 | 118 | 113 | 134 | 109 |
| O=c1[nH]nc(Sc2ncc([N+](=O)[O-])s2)n1-c1ccc2c(c1)OCCO2 + O=C(Nc1ccccc1)c1cc([N+](=O)[O-])ccc1Cl [GW9662] (first compound 0.2 µM, partner dose 2 µM) | 103 | 96.2 | 99.8 | 108 | 91 | 108 | 104 | 96.1 | 78.3 | 75.7 |
| CC1(C)NC(=O)N(c2ccc([N+](=O)[O-])c(C(F)(F)F)c2)C1=O [nilutamide] + C[C@@H]1CCN(C(=O)CC#N)C[C@@H]1N(C)c1ncnc2[nH]ccc12 [CP690550] (first compound 1 µM, partner dose 1 µM) | 97.9 | 93.9 | 85.8 | 106 | 91.3 | 105 | 96.6 | 95.9 | 94.6 | 85.7 |
| O=c1[nH]nc(Sc2ncc([N+](=O)[O-])s2)n1-c1ccc2c(c1)OCCO2 + COc1ccc(COc2ccc(Cc3cnc(N)nc3N)cc2OC)cc1 [GW2580] (first compound 0.2 µM, partner dose 1 µM) | 101 | 109 | 88 | 97.4 | 128 | 104 | 109 | 92.9 | 93.3 | 112 |
| O=c1[nH]nc(Sc2ncc([N+](=O)[O-])s2)n1-c1ccc2c(c1)OCCO2 + COc1ccc(-c2ccc3c(N4CCOCC4)nc(N4C[C@@H](C)O[C@@H](C)C4)nc3n2)cc1CO [KU0063794] (first compound 0.2 µM, partner dose 0.02 µM) | 88.5 | 102 | 106 | 117 | 103 | 96.9 | 88.2 | 111 | 89.4 | 99.2 |
| O=c1[nH]nc(Sc2ncc([N+](=O)[O-])s2)n1-c1ccc2c(c1)OCCO2 + Cn1cncc1[C@@](N)(c1ccc(Cl)cc1)c1ccc2c(c1)c(-c1cccc(Cl)c1)cc(=O)n2C [tipifarnib] (first compound 0.2 µM, partner dose 0.01 µM) | 107 | 96.6 | 104 | 89.3 | 95.4 | 82 | 68.2 | 114 | 85 | 87.4 |
| O=C(Nc1cccc(Cl)c1)Nc1ncc(CCNc2ncnc3ccsc23)s1 + Cn1cncc1[C@@](N)(c1ccc(Cl)cc1)c1ccc2c(c1)c(-c1cccc(Cl)c1)cc(=O)n2C [tipifarnib] (first compound 0.0008 µM, partner dose 0.01 µM) | 103 | 102 | 85.8 | 92.3 | 83.8 | 80.9 | 105 | 109 | 69.9 | 66.5 |
| Cn1cncc1[C@@](N)(c1ccc(Cl)cc1)c1ccc2c(c1)c(-c1cccc(Cl)c1)cc(=O)n2C [tipifarnib] + COc1cc2c(Oc3ccc4[nH]c(C)cc4c3F)ncnc2cc1OCCCN1CCCC1 [cediranib] (first compound 0.01 µM, partner dose 0.4 µM) | 100 | 84.2 | 80.5 | 75.4 | 87 | 94 | 100 | 93.1 | 82.5 | 73.3 |
| CC1(C)NC(=O)N(c2ccc([N+](=O)[O-])c(C(F)(F)F)c2)C1=O [nilutamide] + COc1cc2c(Oc3ccc4[nH]c(C)cc4c3F)ncnc2cc1OCCCN1CCCC1 [cediranib] (first compound 1 µM, partner dose 0.4 µM) | 108 | 100 | 114 | 90.6 | 97.1 | 95 | 102 | 96.9 | 82 | 79.8 |
| O=c1[nH]nc(Sc2ncc([N+](=O)[O-])s2)n1-c1ccc2c(c1)OCCO2 + CC(C)(C)c1cnc(CSc2cnc(NC(=O)C3CCNCC3)s2)o1 [SNS-032] (first compound 0.2 µM, partner dose 0.01 µM) | 107 | 106 | 89.1 | 108 | 93.2 | 102 | 109 | 109 | 103 | 96.2 |
| CC1(C)NC(=O)N(c2ccc([N+](=O)[O-])c(C(F)(F)F)c2)C1=O [nilutamide] + CN(C)S(=O)(=O)c1ccc2c(c1)/C(=C/c1cc3c([nH]1)CCCC3)C(=O)N2 [SU6656] (first compound 1 µM, partner dose 0.4 µM) | 108 | 99.8 | 93.1 | 82 | 91.8 | 104 | 115 | 97.1 | 101 | 97.6 |
| C[C@@H]1CCN(C(=O)CC#N)C[C@@H]1N(C)c1ncnc2[nH]ccc12 + Cn1cncc1[C@@](N)(c1ccc(Cl)cc1)c1ccc2c(c1)c(-c1cccc(Cl)c1)cc(=O)n2C [tipifarnib] (first compound 1 µM, partner dose 0.01 µM) | 103 | 96.9 | 97.5 | 99.2 | 106 | 86.4 | 108 | 97.1 | 76.9 | 67.4 |
| CC1(C)NC(=O)N(c2ccc([N+](=O)[O-])c(C(F)(F)F)c2)C1=O [nilutamide] + CC(C)(C)c1cnc(CSc2cnc(NC(=O)C3CCNCC3)s2)o1 [SNS-032] (first compound 1 µM, partner dose 0.01 µM) | 107 | 101 | 91.1 | 118 | 82.3 | 93.6 | 119 | 98.6 | 115 | 76 |
| COc1cc(Nc2ncc(F)c(Nc3ccc4c(n3)NC(=O)C(C)(C)O4)n2)cc(OC)c1OC [Tamatinib] + CN(NC(=O)CC(=O)NN(C)C(=S)c1ccccc1)C(=S)c1ccccc1 [STA4783] (first compound 0.4 µM, partner dose 0.006 µM) | 95.3 | 94.4 | 87.8 | 95 | 80.7 | 100 | 103 | 94.5 | 94.8 | 97.2 |
| O=c1[nH]nc(Sc2ncc([N+](=O)[O-])s2)n1-c1ccc2c(c1)OCCO2 + COc1cc2c(Oc3ccc4[nH]c(C)cc4c3F)ncnc2cc1OCCCN1CCCC1 [cediranib] (first compound 0.2 µM, partner dose 0.4 µM) | 102 | 115 | 96.1 | 128 | 106 | 115 | 89.2 | 93 | 78.6 | 93.6 |
| O=c1[nH]nc(Sc2ncc([N+](=O)[O-])s2)n1-c1ccc2c(c1)OCCO2 + Cn1cc(/C=C2\C(=O)Nc3cccnc32)c2ccccc21 [GW441756] (first compound 0.2 µM, partner dose 0.4 µM) | 96.5 | 106 | 95.3 | 116 | 99.2 | 98.5 | 96.6 | 94.4 | 83.7 | 74.2 |
| C[C@@H]1CCN(C(=O)CC#N)C[C@@H]1N(C)c1ncnc2[nH]ccc12 + CN(NC(=O)CC(=O)NN(C)C(=S)c1ccccc1)C(=S)c1ccccc1 [STA4783] (first compound 1 µM, partner dose 0.006 µM) | 110 | 91.5 | 95.3 | 93 | 92.4 | 83.7 | 98.2 | 107 | 122 | 101 |
| CC1(C)NC(=O)N(c2ccc([N+](=O)[O-])c(C(F)(F)F)c2)C1=O [nilutamide] + O=C(O)c1ccc(-c2c[nH]c3ncc(-c4ccccc4)cc23)cc1C1CCCC1 [GSK650394] (first compound 1 µM, partner dose 0.16 µM) | 96.3 | 88.7 | 95.3 | 91.2 | 88.2 | 102 | 96.9 | 84.7 | 91.6 | 81.6 |
| O=c1[nH]nc(Sc2ncc([N+](=O)[O-])s2)n1-c1ccc2c(c1)OCCO2 + O=c1cc(-c2cccc3c2Sc2ccccc2S3)oc(N2CCOCC2)c1 [KU55933] (first compound 0.2 µM, partner dose 1 µM) | 102 | 96 | 93.5 | 110 | 71.9 | 98.5 | 90.8 | 97.5 | 85.6 | 98.6 |
